Here are results for 42 sequences from publication PMC7819943, “Rice protein-binding microarrays: a tool to detect cis-acting elements near promoter regions in rice”.

The other results are listed elsewhere or left out.

This assay addresses T1, OsWOX13 (Oryza sativa, UniProt Q5QMM3 1-267).
T1 sequence: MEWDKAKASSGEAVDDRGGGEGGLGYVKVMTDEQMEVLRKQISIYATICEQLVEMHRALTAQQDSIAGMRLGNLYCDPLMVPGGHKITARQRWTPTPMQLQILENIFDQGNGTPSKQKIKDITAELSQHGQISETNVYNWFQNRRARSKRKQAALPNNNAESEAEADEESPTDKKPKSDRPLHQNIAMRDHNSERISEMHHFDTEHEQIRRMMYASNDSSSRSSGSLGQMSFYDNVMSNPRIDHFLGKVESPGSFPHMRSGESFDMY
Put plainly: protein-binding microarray (RPBM); PBS, 2% BSA, 51.3 ng/ul salmon testes DNA, 50 uM zinc acetate, 200 nM TF, 25 C, 1 h; high values mean tight binding. Conditions: protein: recombinant; tags: N-terminal polyhistidine and DsRed monomer fusion (pET32a); label: CyDye5-dUTP incorporated in the synthesized complementary strand; 3' TTTTT single-stranded linker to array surface; dsDNA, one strand shown. The method, boiled down:
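Polyhistidine-tagged DsRed fusions of transcription factors, joined at the N-terminus, were expressed in E. coli BL21-CodonPlus and isolated on Ni–NTA. They were incubated at 200 nM for 1 h at 25 °C on a custom Agilent array, double-stranded and BSA-blocked, in PBS with 2% BSA, salmon testes DNA and 50 µM zinc acetate. The binding signal is per-feature fluorescence intensity (arbitrary units) read on an Axon 4000B scanner after washing.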
For the sequence “CTGAGCCTGATTTGCTCCCTTGTCAGTCGCGTTGGTTGGCCGGAGTCACCTAGTGCAG”, the binding signal is 13300 fluorescence intensity (a.u.).

In the case of “TTAAGATTATTATAATCTAGATTATTAAATCAGATTACTCCGGAGTCACCTAGTGCAG”, the binding signal is 18600 fluorescence intensity (a.u.).

As to “CATGGACAACAATCATTGCCTGTTACGCGCAAAGTTCTCGCGGAGTCACCTAGTGCAG”, the binding signal is 8490 fluorescence intensity (a.u.).

Turning to “TTTAATTTACCCATTGATCTAGCTCGCGATATATATGATCCGGAGTCACCTAGTGCAG”, the binding signal was 22000 fluorescence intensity (a.u.).

For the sequence “TAGGTGAAATTGGTATTATAATATCGTCGAAATTTCGTAGCGGAGTCACCTAGTGCAG”, the binding signal was 5030 fluorescence intensity (a.u.).

Turning to “CTGATAGATAGCCGTCCGATCCGCGCGGCTCGATCACACGCGGAGTCACCTAGTGCAG”, the binding signal was 14000 fluorescence intensity (a.u.).

As for “GCTGTGATTTGCATGCATGCAAAATCTATCTACGTGCAAACGGAGTCACCTAGTGCAG”, the binding signal was 12700 fluorescence intensity (a.u.).

On to “GGTAATTTGATCGACCGCAATAGTTCATGGGGTAATTTGGCGGAGTCACCTAGTGCAG”, for which the binding signal was 34800 fluorescence intensity (a.u.).

As to “AGCCCACGTTAATTGGCCTCTGACTTCCCTACGTTCTCCTCGGAGTCACCTAGTGCAG”, the binding signal is 19100 fluorescence intensity (a.u.).

With “TCCATTTCAGAATAAATTAATCTATCACGAGATGTGATATCGGAGTCACCTAGTGCAG”, the binding signal was 8230 fluorescence intensity (a.u.).

Consider “AATATACACTTGATTAGTACTAATCAATCCAAAGCAATGACGGAGTCACCTAGTGCAG”, for which the binding signal was 23500 fluorescence intensity (a.u.).

Take “TTTAAATTTAATTCCAAGGAATGGCGAGTTCGTGCTGAGCCGGAGTCACCTAGTGCAG”: the binding signal was 17500 fluorescence intensity (a.u.).

On to “ATAAACTTACAATTTTATAAACTTACTCTATCACCTTTGTCGGAGTCACCTAGTGCAG”, for which the binding signal was 4410 fluorescence intensity (a.u.).

With “ACTGATTTGGTGGACAACTCTTGAAGTTGAAGAAGCTCTCCGGAGTCACCTAGTGCAG”, the binding signal is 14200 fluorescence intensity (a.u.).

With “TGTTGCTTGCTAATTGCTATCTTGACTTATTATTTGGTTTCGGAGTCACCTAGTGCAG”, the binding signal is 4860 fluorescence intensity (a.u.).

“TAACAAATTACACAAATTTCGAGTGTCACTAGCAAATTTTCGGAGTCACCTAGTGCAG”: the binding signal is 9370 fluorescence intensity (a.u.).

As for “TTACAAATTATTTTATATTTGTAAATATATCATTTCGTCTCGGAGTCACCTAGTGCAG”, the binding signal was 8800 fluorescence intensity (a.u.).

Consider “AAAATACTGACTGGATTGCCACGCGTATGTCACGTAGGACCGGAGTCACCTAGTGCAG”, for which the binding signal was 6400 fluorescence intensity (a.u.).

As to “ACCAGGAAGTCATAAATTAATGGATCGAATATGACCTGCTCGGAGTCACCTAGTGCAG”, the binding signal is 3160 fluorescence intensity (a.u.).

As to “TATCTAAATTATATAACAATAATAAGATTAAAATAGCATTCGGAGTCACCTAGTGCAG”, the binding signal was 7050 fluorescence intensity (a.u.).

In the case of “GGTATTAACTTAGAACACTAAATTGGATTCATATGGTTCACGGAGTCACCTAGTGCAG”, the binding signal was 4450 fluorescence intensity (a.u.).

In the case of “TGAGCTATTATTGATTAACATAAGTTCAGGTGGGTTTCTTCGGAGTCACCTAGTGCAG”, the binding signal was 11900 fluorescence intensity (a.u.).

Consider “AGATAAATCACATTTACATGCAAATGATTCCACTTGTCATCGGAGTCACCTAGTGCAG”, for which the binding signal is 7850 fluorescence intensity (a.u.).

Consider “CTAATAACAAAACAAATTATAGATTCCGACTGTAAACTGCCGGAGTCACCTAGTGCAG”, for which the binding signal is 8560 fluorescence intensity (a.u.).

“AGATAGATTAATATATAATATATCTTATTGCAAACATGCGCGGAGTCACCTAGTGCAG”: the binding signal is 19400 fluorescence intensity (a.u.).

Take “GGTTTGGATGATTAGCTACACGTAAAACGAGAAACGCGGTCGGAGTCACCTAGTGCAG”: the binding signal is 14100 fluorescence intensity (a.u.).

With “CACTACAACAGATTGGTAACATCGAGTACCAGACAGATTGCGGAGTCACCTAGTGCAG”, the binding signal is 13600 fluorescence intensity (a.u.).

With “GATAATTCTTATGTTACTGACTAATATGATAGTACTGAGTCGGAGTCACCTAGTGCAG”, the binding signal is 5770 fluorescence intensity (a.u.).

For “TAATTTGATTGTGTTGCATATTCAAAATTTTAACTTTATTCGGAGTCACCTAGTGCAG”, the binding signal was 13900 fluorescence intensity (a.u.).

Consider “ACCATTTTAATTACTACTTAATGACATTATTTATGCTTCGCGGAGTCACCTAGTGCAG”, for which the binding signal was 20800 fluorescence intensity (a.u.).

For the sequence “TTGAATTAATTTAATTATTAATAACTGCACCACACGCGCTCGGAGTCACCTAGTGCAG”, the binding signal is 41100 fluorescence intensity (a.u.).

As to “AATTGTGATTTTGCTATCGCAAAAGATTGGTTTCGCTGAACGGAGTCACCTAGTGCAG”, the binding signal was 6300 fluorescence intensity (a.u.).

For “TATAATTTGACAATGTAATGCTACATAAAACATTTGCTAACGGAGTCACCTAGTGCAG”, the binding signal is 28200 fluorescence intensity (a.u.).

For the sequence “ATAGATAGATTTCTCCATAAGTAATTACATTGTAGGTAGGCGGAGTCACCTAGTGCAG”, the binding signal is 28500 fluorescence intensity (a.u.).

On to “CAAGATTGGGACAAAATATCATCTTCGCTTGAGGAAATGACGGAGTCACCTAGTGCAG”, for which the binding signal was 7720 fluorescence intensity (a.u.).

Regarding “CCTACAATAGACAAATTTAAAACCGGTTCGATTCTTCAGACGGAGTCACCTAGTGCAG”, the binding signal is 4420 fluorescence intensity (a.u.).

As for “TTCTAATTTTATAAAATTTGAATGGCATATTTATAAATATCGGAGTCACCTAGTGCAG”, the binding signal was 9090 fluorescence intensity (a.u.).

As to “TTATTGATTGTTCGAATTTTAAAAGTTTTAATTGAATGTTCGGAGTCACCTAGTGCAG”, the binding signal was 45200 fluorescence intensity (a.u.).

In the case of “AGCTAAATCTGTGATTGCCGTTGCATCTAGCCACGTCGTCCGGAGTCACCTAGTGCAG”, the binding signal was 14600 fluorescence intensity (a.u.).

Take “GCAAAGTTCACTGCAAATGATTAGATCCTAATTCCCAGACCGGAGTCACCTAGTGCAG”: the binding signal is 3160 fluorescence intensity (a.u.).

Take “ATTAGCTAATACTTAATTAATCACATACTAATGGACCGTTCGGAGTCACCTAGTGCAG”: the binding signal was 5940 fluorescence intensity (a.u.).

As to “AAAATGATTTATTAATCATTACATGACTAAAATCATAAGCCGGAGTCACCTAGTGCAG”, the binding signal is 38300 fluorescence intensity (a.u.).
